Hit rate of the full screen: of about 150,000 compounds, about 540 (0.36%) showed an effect of 50% or more. This is one part of the list.
Each compound was assayed on Plasmodium falciparum (assay: Primary screen in NF54 nanoGlo assay, in single point, at 2uM, 72h; a lower Z score goes with more inhibition). Conditions: timepoint 72 hour.
Type: functional, Erythrocyte
N#CCN(C(=O)c1coc(CC2CC2)n1)C1CCCC1 was tested, and the “% Inhibition” value was 0% and the Z score was -0.03. In the case of CC(=O)O[C@@H]1CC(C)N(C(C)=O)c2ccc(C)cc21 (stereo partly specified), the “% Inhibition” value was -14% and the Z score was 1.6. In the case of Cc1ccc(C)c(Nc2nc(N3CCN(Cc4ccccc4)CC3)nc3nccnc23)c1, the “% Inhibition” value was -12% and the Z score was 1.4. With O=C(NCC1CCCCC1O)c1cccc(-c2nnco2)c1 (stereo unspecified) the “% Inhibition” value was -16% and the Z score was 1.61. With CC(C)NC(=O)Cc1cccc(N(Cc2ccc(F)cc2)C(=O)NC(C)C)c1 the “% Inhibition” value was -13% and the Z score was 1.21. Cc1cc(C(=O)N[C@H]2CC[C@H](Oc3ccccn3)CC2)c(C)o1 was tested, and the “% Inhibition” value was -12% and the Z score was 1.41. For Cc1cc(C)c(C(=O)CC2(C(F)(F)C(F)F)NCCN2)c(=O)[nH]1, the “% Inhibition” value was 9% and the Z score was -1.17. In the case of Cc1csc(-c2noc(Cn3ncn(C)c3=O)n2)n1, the “% Inhibition” value was -6% and the Z score was 0.81. For CCC(=O)N1CC[C@@]2(CCCN(Cc3cccc(F)c3F)C2=O)C1, the “% Inhibition” value was -14% and the Z score was 2.15. For CC(C)N1CCN2C(=O)c3ccccc3OCC[C@@H]3CC[C@@H](NS(C)(=O)=O)[C@@H](CNC(=O)[C@@H]2C1)O3, the “% Inhibition” value was -12% and the Z score was 1.5. For COc1cccc(C(=O)Nc2ccc(N3CCN(C(=O)C4CCCC4)CC3)c(C(=O)N(C)Cc3ccccc3)c2)c1, the “% Inhibition” value was 19% and the Z score was -2.38. In the case of O=C(NCC1COCCO1)c1cn(CC(O)c2cccs2)nn1 (stereo unspecified), the “% Inhibition” value was 4% and the Z score was -0.72. With CNc1snc(C)c1C(=O)N1CCN(c2cccc(Cl)c2)CC1 the “% Inhibition” value was -15% and the Z score was 1.8. For COc1ccc(C(=O)N2CCC3(CC2)OC[C@@H](C(=O)NCc2ccccn2)N3C(=O)c2ccccc2C)cc1OC, the “% Inhibition” value was -8% and the Z score was 0.84. With Cc1nn(CCOc2ccccc2)c(=O)n1-c1ccc(C(C)C)cc1 the “% Inhibition” value was 34% and the Z score was -1.48. In the case of CCOc1ccc(CCN2C(=O)CC[C@@]2(C)C(=O)NC2CCCCCCC2)cc1OCC, the “% Inhibition” value was 0% and the Z score was -0.03. In the case of Cc1ccc(F)cc1C(=O)N1CC[C@@](O)(C2CCOCC2)[C@H](C)C1, the “% Inhibition” value was -10% and the Z score was 1.77. In the case of O=C1NCCCCCCN(Cc2ccncc2)[C@@H]2CN(S(=O)(=O)c3ccc4c(c3)CCC4)CC[C@H]12, the “% Inhibition” value was 0% and the Z score was 0.06. With Cc1cn2cc(C(=O)N[C@@H](C)c3nc(-c4ccncc4)no3)ccc2n1 the “% Inhibition” value was -3% and the Z score was 0.59. With Cc1csc(C(NC(=O)C2CC3C=CC2C3)C2CC2)n1 (stereo unspecified) the “% Inhibition” value was 5% and the Z score was -0.47. With C[C@@H](c1cccnc1)N(C)CC(=O)Nc1ccn(C)n1 the “% Inhibition” value was -11% and the Z score was 1.89. In the case of O=C(Nc1cccnn1)N[C@@H](C1CCCC1)C(F)(F)F, the “% Inhibition” value was -6% and the Z score was 0.57. With COCC[C@H](C)NC(=O)NCc1sc(C)nc1C the “% Inhibition” value was -12% and the Z score was 2.31. In the case of Cc1nccn1C1(C(=O)O)CCN(C(=O)NCc2cccs2)CC1, the “% Inhibition” value was 12% and the Z score was -1.53. For Cc1[nH]nc(NC(=O)c2cccnc2O)c1-c1ccc2c(c1)OCO2, the “% Inhibition” value was -10% and the Z score was 1.35. In the case of COc1ccc(CN2Cc3cc(NC(=O)Nc4ccccc4)ccc3O[C@@H](C)C2=O)c(OC)c1, the “% Inhibition” value was -9% and the Z score was 0.91. Cc1nc([C@@H]2C[C@@H](O)CN2)n(C2CCCCC2)n1 was tested, and the “% Inhibition” value was 2% and the Z score was -0.27. With O=S(=O)(Cc1ccc(Cl)cc1)N1CCN(C2CCCC2)CC1 the “% Inhibition” value was -16% and the Z score was 2.41. For COc1cccc(NC(=O)Cc2c(C)nn(-c3nc(-c4ccc(C)cc4)cs3)c2C)c1, the “% Inhibition” value was -13% and the Z score was 1.45. In the case of Cc1cc(CN2C[C@H](C)Oc3c(Cl)cccc32)no1, the “% Inhibition” value was 0% and the Z score was 0.03. For CC(C)(CN1CC(C)(C)[C@@](C)(O)C1)N1CCCCC1, the “% Inhibition” value was -13% and the Z score was 2.18. With CCc1nn(C)cc1CNC(=O)N(C)Cc1cc(F)c(F)c(F)c1 the “% Inhibition” value was 5% and the Z score was -0.88. For NS(=O)(=O)c1ccc(CCn2cnc3cnccc3c2=O)cc1, the “% Inhibition” value was -7% and the Z score was 0.98. In the case of C[C@H](O)c1onc(-c2cccs2)c1C(=O)NC1CCCCC1, the “% Inhibition” value was -7% and the Z score was 1.13. With O=C(NCc1ccccn1)C(CN(Cc1ccc2c(c1)OCO2)CC1CCCO1)Oc1cccc(F)c1 (stereo unspecified) the “% Inhibition” value was 3% and the Z score was -0.24. In the case of CCc1ccc(C(C)NC[C@H]2CCCN2S(C)(=O)=O)o1 (stereo partly specified), the “% Inhibition” value was -13% and the Z score was 1.08. O=c1c2cc(Br)cc(F)c2ncn1CC[C@H]1CCCO1 was tested, and the “% Inhibition” value was -13% and the Z score was 2.09. With O=C(CCCOc1ccccc1)NCc1cccnc1 the “% Inhibition” value was -9% and the Z score was 1.03. With CCN1CC(=O)N([C@@H](c2ccccc2)c2ccccn2)C1=O the “% Inhibition” value was -2% and the Z score was 0.22. For CCOc1ccc(N2C[C@@H](C(=O)NCCc3ccco3)CC2=O)cc1, the “% Inhibition” value was 0% and the Z score was -0.05. In the case of N#Cc1cnccc1CN1CCC2(CCC2)S(=O)(=O)CC1, the “% Inhibition” value was 1% and the Z score was -0.13. With Cc1nc(C)c(CNC2(CN3CCN(c4ccc(F)cc4)CC3)CC2)o1 the “% Inhibition” value was -8% and the Z score was 1.55. With Cc1ccnn1CCC(=O)N1CCC[C@H](c2nc3ccccc3s2)C1 the “% Inhibition” value was -15% and the Z score was 1.55. With O=c1c2ccccc2n(Cc2ccc(F)cc2Cl)c(=O)n1Cc1ccccc1 the “% Inhibition” value was -2% and the Z score was 0.22. For CN(CC1(c2ccccc2)CC1)C(=O)C[C@H]1CC(=O)NC1=O, the “% Inhibition” value was -13% and the Z score was 1.76. For Cc1nn(C)c2nc(N3CCC[C@H](N(C)C)CC3)sc12, the “% Inhibition” value was -5% and the Z score was 0.79. With CCCOC[C@H]1CCN(C(=O)c2c(C)ncnc2C)C1 the “% Inhibition” value was -21% and the Z score was 2.77. For Cc1cc(C(=O)NC2CCC(CO)CC2)cc(O)n1 (stereo unspecified), the “% Inhibition” value was -11% and the Z score was 1.12. With CC(=O)N1CCC(NC(C)c2cc(C)on2)C1 (stereo unspecified) the “% Inhibition” value was 10% and the Z score was -1.86. In the case of COCCN1CCCC(NCC2CC=CCC2)C1 (stereo unspecified), the “% Inhibition” value was -10% and the Z score was 1.39. In the case of O=C(c1noc2c1CCCC2)N1CCN(C2CCCCC2)CC1, the “% Inhibition” value was -1% and the Z score was 0.16. With CCS(=O)(=O)NC[C@H](C)NCc1cnc(C)c(C)c1 the “% Inhibition” value was 14% and the Z score was -1.8. With CC1CCC(N2C[C@@H](C(=O)OCC(C)(C)C)CC2=O)CC1 (stereo partly specified) the “% Inhibition” value was 41% and the Z score was -5.32.
